Source: the RNAGym collection of RNA variant scans (doi:10.7554/elife.90254)
Read counts are not given, so values of variants with three or more changes are uncertain.

B1: LINE1-mini (parent)
chain: GGCAGAGCUCAACACAGCGUGGCAAAGUGGCUGUGGCUAGACUGCC

Variants of: B1
Assay: self-cleavage, relative activity (ratio to wild type); higher = more cleavage; in vitro, sequencing; the parent is a self-cleaving ribozyme
Work on C10A C13A G33A yielded a self-cleavage of 0.03. In the case of C10A C13A G33C G36C, the self-cleavage is reported as 0.01. Variant C10A C13G A16C G17C C18U G36U C46G has a self-cleavage of 0.01. C10A C13G A25G showed a self-cleavage of 0.02. In the case of C10A C13G A41G G44C, the self-cleavage is reported as 0. With C10A C13U A26G G36U the self-cleavage was 0.02. C10A C13U A41G gave a self-cleavage of 0.01. C10A C13U C23A G35C gave a self-cleavage of 0.01. In the case of C10A C13U G30U C37A, the self-cleavage is reported as 0.01. With C10A C13U G36U the self-cleavage was 0.03. C10A C13U G40A gave a self-cleavage of 0.14. C10A C13U U20C showed a self-cleavage of 0.02. Variant C10A C13U U34G has a self-cleavage of 0.02. C10A C15A A26G showed a self-cleavage of 0. With C10A C15A A26U the self-cleavage was 0. C10A C15A C23G C45U showed a self-cleavage of 0.03. In the case of C10A C15A C23U, the self-cleavage is reported as 0.08. Work on C10A C15A C42U U43A yielded a self-cleavage of 0.04. With C10A C15A G21U the self-cleavage was 0.04. C10A C15A G33A showed a self-cleavage of 0.04. Variant C10A C15G A16C has a self-cleavage of 0.02. For C10A C15G A24U U32A, the self-cleavage was 0.01. Variant C10A C15G C23U has a self-cleavage of 0.03. C10A C15U A24G C37U gave a self-cleavage of 0.01. Work on C10A C15U A25C G35A yielded a self-cleavage of 0.01. C10A C15U A39C C42A U43G showed a self-cleavage of 0.01. Work on C10A C15U C18A G22U yielded a self-cleavage of 0.08. With C10A C15U C18U the self-cleavage was 0.62. For C10A C15U C42U, the self-cleavage was 0.03. In the case of C10A C15U G33U C42U, the self-cleavage is reported as 0.03. C10A C15U G33U G44U C46U gave a self-cleavage of 0.02. C10A C15U U20A G21A G40C gave a self-cleavage of 0.01. Variant C10A C15U U34C has a self-cleavage of 0.08. C10A C18A C37U showed a self-cleavage of 0.02. For C10A C18A C46A, the self-cleavage was 0.02. Work on C10A C18A G29C yielded a self-cleavage of 0.06. Variant C10A C18A U32G has a self-cleavage of 0.02. With C10A C18G A25U the self-cleavage was 0.25. Work on C10A C18G G22C U34A yielded a self-cleavage of 0.01. C10A C18G U32C G33U showed a self-cleavage of 0.01. Variant C10A C18U C45G has a self-cleavage of 0.26. With C10A C18U G27C the self-cleavage was 0.53. With C10A C18U G27U U32C A39C the self-cleavage was 0.03. C10A C18U G40A gave a self-cleavage of 0.01. Variant C10A C23G C42A U43A has a self-cleavage of 0.01. With C10A C23G U38G C42U the self-cleavage was 0.03. C10A C23U C46A gave a self-cleavage of 0.04. Variant C10A C31A G40A C46G has a self-cleavage of 0.02. C10A C31A U32C showed a self-cleavage of 0.02. In the case of C10A C37U A41C, the self-cleavage is reported as 0.01. C10A G17A A24G G29A C45G showed a self-cleavage of 0.04. C10A G17A A39U showed a self-cleavage of 0.08. In the case of C10A G17A G36C C45U, the self-cleavage is reported as 0. C10A G17A U43C G44C showed a self-cleavage of 0.01. Variant C10A G17C A25C G33U C42G has a self-cleavage of 0. With C10A G17C C18G G29C A39C the self-cleavage was 0. With C10A G17C G35C the self-cleavage was 0.05. Variant C10A G17C G44U has a self-cleavage of 0.03. In the case of C10A G17C U20A, the self-cleavage is reported as 0.03. C10A G17C U34A G35C C45A showed a self-cleavage of 0.01. In the case of C10A G17U A39U A41U, the self-cleavage is reported as 0.08. C10A G17U G19A G27A U28G U32A A39U showed a self-cleavage of 0.02. With C10A G17U G33C the self-cleavage was 0.04. C10A G17U G36U showed a self-cleavage of 0.02. C10A G19A C23U C37A U38A showed a self-cleavage of 0.01. Work on C10A G19A U32A G35A G44U C46G yielded a self-cleavage of 0.01. C10A G19C C31G gave a self-cleavage of 0.05. Work on C10A G19C G21U G35A U38A yielded a self-cleavage of 0.01. For C10A G19C G29U G33U, the self-cleavage was 0.03. C10A G19U A24G gave a self-cleavage of 0.08. C10A G19U A25C showed a self-cleavage of 0.01. C10A G19U A26C G33U C42A showed a self-cleavage of 0.01. With C10A G19U C23U A25C G36U the self-cleavage was 0.03. C10A G19U G36C gave a self-cleavage of 0.03. With C10A G19U U43C the self-cleavage was 0. Work on C10A G21A G29U yielded a self-cleavage of 0.08. Work on C10A G21C A24G A25G U34A yielded a self-cleavage of 0.03. C10A G21C A24U showed a self-cleavage of 0.01. C10A G21C G22A gave a self-cleavage of 0. C10A G21C G27U U28G showed a self-cleavage of 0.04. Work on C10A G21C U32G G35U yielded a self-cleavage of 0. For C10A G21U A24G A39U, the self-cleavage was 0.17. With C10A G21U G27U the self-cleavage was 0. C10A G21U G40C showed a self-cleavage of 0.01. C10A G21U G40U G44A gave a self-cleavage of 0.06. For C10A G21U U43G G44U, the self-cleavage was 0.02. For C10A G22A U34C, the self-cleavage was 0.07. With C10A G22C C23G the self-cleavage was 0.04. For C10A G22C G27A, the self-cleavage was 0.01. With C10A G22C G27U the self-cleavage was 0.02. C10A G22C U28C C31G U34C G36C G40A showed a self-cleavage of 0. In the case of C10A G22U A26C A39U U43A, the self-cleavage is reported as 0. C10A G22U C45U showed a self-cleavage of 0.07. Work on C10A G22U G29C U43A yielded a self-cleavage of 0. C10A G22U U28A G33A C46A gave a self-cleavage of 0.02. Variant C10A G27A G30U A41C C42A has a self-cleavage of 0. C10A G27A G35C showed a self-cleavage of 0.02. For C10A G27C C37A, the self-cleavage was 0.01. In the case of C10A G27C G30U G33A, the self-cleavage is reported as 0.02. With C10A G27C G36U the self-cleavage was 0.01. Work on C10A G27C U38C C45U yielded a self-cleavage of 0.02. C10A G27U G35U C37G gave a self-cleavage of 0.03. C10A G29C U32A G36A gave a self-cleavage of 0.01. With C10A G29U U32G G35U C42A the self-cleavage was 0.02. With C10A G30A G33A the self-cleavage was 0.06. In the case of C10A G30A G40C, the self-cleavage is reported as 0.57. C10A G30C C45A gave a self-cleavage of 0.02. C10A G30U G33U showed a self-cleavage of 0.05. C10A G33A G35A A41U gave a self-cleavage of 0.02. Variant C10A G33U C42G has a self-cleavage of 0. Variant C10A G33U G35U has a self-cleavage of 0.01. In the case of C10A G35U G40U C46U, the self-cleavage is reported as 0.01. Variant C10A G36A C37U U43G G44U has a self-cleavage of 0.01. Work on C10A G36C G44A yielded a self-cleavage of 0.04. C10A G40C C46U gave a self-cleavage of 0.01. Work on C10A G44U C46A yielded a self-cleavage of 0.03. For C10A U20A G21A G30U G40U, the self-cleavage was 0.01. Work on C10A U20A G21U yielded a self-cleavage of 0.01. For C10A U20C C31A, the self-cleavage was 0.03. For C10A U20C G29A G36U C37U, the self-cleavage was 0. Variant C10A U20C U43C has a self-cleavage of 0.01. With C10A U20G C31G U38C the self-cleavage was 0.02. For C10A U20G G22C C42G, the self-cleavage was 0.02. C10A U28C A41G showed a self-cleavage of 0.05. For C10A U28C G40U, the self-cleavage was 0.01. With C10A U28G G36U the self-cleavage was 0.02. In the case of C10A U28G G44A C45U, the self-cleavage is reported as 0. For C10A U28G U38G, the self-cleavage was 0.01. Work on C10A U32C C46G yielded a self-cleavage of 0. Variant C10A U32G G33A G40C C45G C46G has a self-cleavage of 0.01. C10A U32G U34C showed a self-cleavage of 0.02. In the case of C10A U34G C37U U43A, the self-cleavage is reported as 0. For C10A U38C C42U, the self-cleavage was 0.01. C10A U38C C45G gave a self-cleavage of 0.02. Work on C10A U38G C42A yielded a self-cleavage of 0.01. In the case of C10A U43G C45U, the self-cleavage is reported as 0.01. In the case of C10G A11C A14C, the self-cleavage is reported as 0.01. In the case of C10G A11C C13A G35C, the self-cleavage is reported as 0.03. With C10G A11C G17C G44C C45G the self-cleavage was 0. With C10G A11C G44C the self-cleavage was 0.02. For C10G A11G A12G C15U U28G G35C G36C, the self-cleavage was 0. For C10G A11G C23A C42A, the self-cleavage was 0. For C10G A11G C31G C42U G44A, the self-cleavage was 0. For C10G A11U A24U, the self-cleavage was 0.01. With C10G A11U C31A the self-cleavage was 0.05. C10G A12C A25U G33C showed a self-cleavage of 0.01. C10G A12C A26U G30A C45G gave a self-cleavage of 0. Work on C10G A12G C15A A16C G36C C42U U43G yielded a self-cleavage of 0. Variant C10G A12U A26U G30A A41U has a self-cleavage of 0. In the case of C10G A12U C15U C18G, the self-cleavage is reported as 0.01. Variant C10G A12U U20A G29C G30U G33C U34C A39C has a self-cleavage of 0. C10G A14C C18A gave a self-cleavage of 0.02. Work on C10G A14C G17A yielded a self-cleavage of 0.02. Work on C10G A14C G17A A25U yielded a self-cleavage of 0. For C10G A14C G29C U34A, the self-cleavage was 0.04. For C10G A14C G35U G44U, the self-cleavage was 0.01. C10G A14C G36A A41C showed a self-cleavage of 0. Work on C10G A14G C23U A26G U34G G40C yielded a self-cleavage of 0.01. C10G A14U A26G A39C showed a self-cleavage of 0.01. With C10G A14U C23U U28C G36A C45U the self-cleavage was 0.01. C10G A14U U28G G35U showed a self-cleavage of 0.03. In the case of C10G A16C A26C C42A, the self-cleavage is reported as 0. C10G A16C C31A G35C A41C U43A gave a self-cleavage of 0.01. Variant C10G A16C C42U has a self-cleavage of 0.03. Work on C10G A16C C45U yielded a self-cleavage of 0.02. In the case of C10G A16C U20G C42U, the self-cleavage is reported as 0. C10G A16G G21C A24U G27A G44C gave a self-cleavage of 0.04.
